From paper PMC10668032 come the findings set out here.

Some of the results follow. At the low end of the ranking the order means little.

In the assay the target is SIX1 homeodomain (reference allele) (UniProt Q15475). Put plainly: universal protein binding microarray. The conditions noted are these: Universal all-10-mer PBM (8x60K, AMADID 030236), 300 nM GST-tagged protein, Alexa Fluor 488 anti-GST; buffer, salt, pH and temperature not stated; high values mean tight binding; most listed sequences are background and not binding sites; double strand, one strand shown.
For the sequence AACTAGAT, the binding signal was 0.23 E-score.

GGTCTCGA: the binding signal turned out to be 0.124 E-score.

Consider CAACATTC, for which the binding signal was -0.257 E-score.

In the case of CCTGTTAC, the binding signal was -0.105 E-score.

Regarding CCTGTCAC, the binding signal is -0.00522 E-score.

As for AATCCCAG, the binding signal was determined as 0.133 E-score.

As to CCTAAAAG, the binding signal was -0.113 E-score.

As to TACGTTGA, the binding signal is 0.0451 E-score.

On to GATTCAGA, for which the binding signal stood at 0.034 E-score.

Consider CCCAGATC, for which the binding signal amounted to 0.38 E-score.

Regarding GATCGAAC, the binding signal was -0.00754 E-score.

For CAACAGAC, the binding signal is -0.189 E-score.

With AACCGACC, the binding signal stood at 0.0696 E-score.

For the sequence CATTAACG, the binding signal was -0.131 E-score.

GTTCAGAA: the binding signal is -0.0901 E-score.

In the case of TATACGAA, the binding signal is 0.164 E-score.

On to ACGCGATC, for which the binding signal was found to be 0.275 E-score.

On to AATTGTCT, for which the binding signal is -0.0686 E-score.

Regarding CCTCTACC, the binding signal came to 0.099 E-score.

TGTCGTAA: the binding signal is -0.0252 E-score.

With GCTAACAA, the binding signal was -0.233 E-score.

Regarding CGGATAAA, the binding signal turned out to be 0.275 E-score.

ATGTCAGC: the binding signal is -0.194 E-score.

In the case of GTGACGGA, the binding signal was -0.12 E-score.

Regarding GAGCGGCC, the binding signal was -0.279 E-score.

Turning to AATCGGAA, the binding signal was -0.133 E-score.

With AGCCACGG, the binding signal was 0.064 E-score.

Regarding CCTTTGAA, the binding signal was -0.186 E-score.

With CTTGACAA, the binding signal is -0.149 E-score.

Consider GACATGGC, for which the binding signal was -0.072 E-score.

Turning to CTATATTA, the binding signal is 0.152 E-score.

Turning to ATTTCTAG, the binding signal is -0.185 E-score.

Turning to TCTCTTCA, the binding signal came out at 0.0774 E-score.

With CTCTGTTA, the binding signal is -0.119 E-score.

For GCACGAGA, the binding signal stood at 0.128 E-score.

Consider AAGGGAAA, for which the binding signal was -0.237 E-score.

For the sequence ATCTACCC, the binding signal is 0.34 E-score.

Regarding TTAATTAA, the binding signal is -0.0826 E-score.

With CGGGTCCA, the binding signal was -0.13 E-score.

Consider AGACCTGA, for which the binding signal was -0.0484 E-score.

GATTGTCA: the binding signal is -0.0205 E-score.

As to GGACAGGA, the binding signal was -0.207 E-score.

For TCTGAGAA, the binding signal is 0.0493 E-score.

GGTGTCCA: the binding signal is 0.314 E-score.

As to CCTAAAGC, the binding signal is -0.0535 E-score.

ATCAATCC: the binding signal was 0.335 E-score.

Turning to CTTACGTA, the binding signal stood at 0.00475 E-score.

Turning to CAGAGTCG, the binding signal was -0.0866 E-score.

On to GTCATACA, for which the binding signal was determined as 0.0735 E-score.

On to CGTGTACC, for which the binding signal was 0.062 E-score.

In the case of ACGACGAA, the binding signal was -0.009 E-score.

For TAACACTA, the binding signal is 0.133 E-score.

As for GGGGAGCA, the binding signal is -0.213 E-score.

As to GCGCAAAC, the binding signal was -0.178 E-score.

In the case of AGCAAGAC, the binding signal is -0.142 E-score.

For CGGGAACC, the binding signal was determined as 0.00364 E-score.

For the sequence GGCGTTGA, the binding signal was -0.00827 E-score.

Turning to ATATGCCC, the binding signal amounted to 0.339 E-score.

With CATCAATC, the binding signal was 0.0012 E-score.

As to CTCCAGCA, the binding signal amounted to 0.0209 E-score.

As to AACCTTGG, the binding signal is -0.0938 E-score.

Consider ATCGTTAC, for which the binding signal amounted to 0.102 E-score.

On to ATTGTTGC, for which the binding signal was -0.147 E-score.

For AGTACTAC, the binding signal is -0.103 E-score.

As for AGCCCGAG, the binding signal was -0.108 E-score.

As to GGTCTGAA, the binding signal is -0.068 E-score.

Regarding AAAAGGAG, the binding signal was -0.218 E-score.

As for ATACTATA, the binding signal was 0.371 E-score.

With GCAGCGTA, the binding signal is -0.194 E-score.

In the case of ACTGGCAG, the binding signal is -0.162 E-score.

ACATAACT: the binding signal is -0.0943 E-score.

For AGCTGTCA, the binding signal was -0.104 E-score.

As for GGACCAAA, the binding signal is -0.161 E-score.

Regarding AAGTTGCG, the binding signal is -0.165 E-score.

With AAAAGGGT, the binding signal was -0.0735 E-score.

For ACGGAGGA, the binding signal was determined as 0.0202 E-score.

On to CAGCAATA, for which the binding signal stood at 0.125 E-score.

As for ACACTGTC, the binding signal is -0.102 E-score.

On to ATGATCAC, for which the binding signal was found to be 0.309 E-score.

Consider CGCGAGTA, for which the binding signal is 0.132 E-score.

For ACCAGAAT, the binding signal was 0.042 E-score.

Turning to GCTACACC, the binding signal was 0.136 E-score.

With GGCTCGCA, the binding signal worked out at 0.0276 E-score.

Consider CGTTTCTC, for which the binding signal is -0.127 E-score.

For GTCTCAAA, the binding signal is 0.0631 E-score.

With ACAGATGA, the binding signal is -0.0369 E-score.

As for CGTATCAA, the binding signal stood at 0.466 E-score.

TCTAAACA: the binding signal is -0.104 E-score.

AGTAGCAA: the binding signal is -0.0902 E-score.

For the sequence CGTCGAGC, the binding signal is -0.115 E-score.

As for CAGGAGAG, the binding signal is 0.0555 E-score.

AAACTAAG: the binding signal is -0.06 E-score.

In the case of GTGGCATA, the binding signal turned out to be 0.101 E-score.

With GGTATGGA, the binding signal came out at 0.252 E-score.

Regarding ATCCTTCG, the binding signal was 0.228 E-score.

With CAAATATA, the binding signal came out at 0.121 E-score.

As to AGCATGGG, the binding signal amounted to 0.12 E-score.

Regarding CAGAGGAG, the binding signal is -0.00123 E-score.

As to AATGGGAT, the binding signal is 0.213 E-score.

With CGCTAGAC, the binding signal was -0.119 E-score.

Turning to AAGCCCAC, the binding signal is -0.139 E-score.

As to ACCTACGT, the binding signal was determined as 0.0104 E-score.

Regarding TCGCCCCA, the binding signal is -0.0876 E-score.

With CAATCCCC, the binding signal stood at 0.193 E-score.

Consider ACCACCAC, for which the binding signal was 0.0406 E-score.

Consider GGATTTAC, for which the binding signal came out at 0.0271 E-score.

With AAGGCTAG, the binding signal was -0.0888 E-score.

For the sequence CCATCCAC, the binding signal is 0.0736 E-score.

AACATATT: the binding signal was determined as 0.0302 E-score.

With AAGCACAC, the binding signal is -0.289 E-score.
